Paper PMC9848319, “Identification of a new structural family of SGK1 inhibitors as potential neuroprotective agents” (Journal of Enzyme Inhibition and Medicinal Chemistry, 2023)
Where two headings read alike, the source gives them in different places.

How the values were obtained:
[1] = target: T1, human recombinant SGK1 (Homo sapiens, UniProt O00141); assay: SGK1 inhibition assay (radioactive, 33P-ATP, MRC Unit Dundee); assay type: biochemical; details: for SGK1 % Inhibition@10 µM: 10 µM compound; for IC50: SGK1
T1 sequence (O00141 60-431): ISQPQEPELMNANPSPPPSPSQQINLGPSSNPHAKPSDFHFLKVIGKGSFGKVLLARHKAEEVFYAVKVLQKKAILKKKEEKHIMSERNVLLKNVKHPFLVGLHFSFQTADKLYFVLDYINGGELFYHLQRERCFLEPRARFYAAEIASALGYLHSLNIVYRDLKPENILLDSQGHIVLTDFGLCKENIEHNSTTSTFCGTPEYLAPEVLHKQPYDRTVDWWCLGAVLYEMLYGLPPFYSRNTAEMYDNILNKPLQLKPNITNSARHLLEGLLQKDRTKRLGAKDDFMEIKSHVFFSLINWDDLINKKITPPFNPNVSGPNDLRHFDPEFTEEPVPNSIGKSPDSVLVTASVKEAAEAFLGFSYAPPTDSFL

[2] = tested on: U2OS-iMLS cells; assay: Mitophagy assay, iMLS reporter, PRKN-independent; assay type: cell-based, human; details: U2OS-iMLS (no PRKN), 24 h; for Reduction of DFP-induced mitophagy: co-treatment with DFP, compounds 10 µM; for Basal mitophagy (red-only structures per cell): compounds at 10 µM or inducer alone
[3] = tested on: SH-SY5Y cells; assay: Neuroprotection against okadaic acid (AD cellular model), crystal violet; details: for Protection from cell death caused by OA: pre-treated 10 µM 1 h, then OA 30 nM 24 h
[4] = tested on: U2OS-iMLS PRKN cells; assay: Mitophagy assay, iMLS reporter, PRKN-dependent; assay type: cell-based, human; details: 24 h; for Basal mitophagy (red-only structures per cell): compounds at 10 µM or inducer alone
[5] = tested on: SH-SY5Y cell line; assay: Citrate synthase assay (amount of mitochondria); assay type: cell-based, human; details: 24 h
[6] = tested on: SGK1; details: cited from earlier work
[7] = tested on: SH-SY5Y MitoQC cells; assay: Mitophagy assay, MitoQC reporter; details: OA 10 nM
[8] = tested on: SH-SY5Y cells; assay: Viability assay, crystal violet, compounds alone; assay type: cell-based, human; details: compounds at 10 µM for 24 h

SMILES	SGK1 % Inhibition@10 µM [1]	IC50 ([1]; read-out: IC50)	Reduction of DFP-induced mitophagy [2]	Basal mitophagy (red-only structures per cell) [2]	other results
Oc1cccc(Nc2ncnc3[nH]ccc23)c1 [AEV1.40]	65.3%	6.5 µM	more than 50%	reduced also basal mitophagy close to half	Protection from cell death caused by OA [3]: reduced the cell death caused by OA
CO/C1=C\C(C)=C\[C@@H](C)[C@@H](O)[C@@H](C)C/C(C)=C/C=C/[C@H](OC)[C@@H]([C@@H](C)[C@@H](O)[C@H](C)[C@@]2(O)C[C@@H](O)[C@H](C)[C@@H](C(C)C)O2)OC1=O [BafA1, Bafilomycin A1, reference compound]	–	–	more than 50%	–	FCCP-induced mitophagy ([4]; co-treatment with FCCP, compounds 10 µM): mitophagy reduction
Cc1c(O)c(=O)ccn1C [DFP, Deferiprone, reference compound]	–	–	–	induced mitophagy	Citrate synthase activity ([5]; DFP 1 mM alone): decrease in citrate synthase activity
CCc1c(C(=O)NNC(=O)C(O)c2cc(F)cc(F)c2)ccc(O)c1C (stereo not drawn) [EMD638683]	–	–	–	–	IC50 [6]: 3000 nM
COC(=O)c1cc(Nc2ncnc3[nH]ccc23)ccc1Br [ERP2.14]	52.6%	–	more than 40%	reduced also basal mitophagy close to half	IC50 [1]: 6.4 µM; Protection from cell death caused by OA [3]: reduced the cell death caused by OA
N#CC(C#N)=NNc1ccc(OC(F)(F)F)cc1 [FCCP, Carbonyl cyanide-p-trifluoromethoxyphenylhydrazone]	–	–	–	–	Basal mitophagy (red-only structures per cell) [4]: induced mitophagy
CC(=O)c1ccc(Nc2ncnc3[nH]ccc23)cc1 [GMH1.12]	74.3%	5.5 µM	more than 40%	reduced also basal mitophagy close to half	Protection from cell death caused by OA [3]: reduced the cell death caused by OA
O=C(O)c1ccc(-c2c[nH]c3ncc(-c4ccccc4)cc23)cc1C1CCCC1 [GSK650394, reference compound]	92.6%	–	more than 50%	neither GSK650394 nor our compounds enhanced the pathway	Basal mitophagy (red-only structures per cell) [4]: neither GSK650394 nor our compounds enhanced the pathway; Citrate synthase activity, co-treatment with DFP ([5]; DFP 1 mM plus compound 10 μM): significatively recovered the loss of mitochondria to control levels; Protection from cell death caused by OA [3]: protected cells from death caused by the toxin
O=C1Nc2ccccc2/C1=N/c1ccc(F)cc1 [IGS4.18]	1%	–	–	–	–
O=C1Nc2ccc(F)cc2/C1=N/N1CCCCC1 [LG1.31]	5%	–	–	–	–
C=C1[C@@H](O)[C@@H]2O[C@]3(CC[C@H](/C=C/[C@@H](C)[C@@H]4CC(C)=C[C@@]5(O[C@H](C[C@@](C)(O)C(=O)O)CC[C@H]5O)O4)O3)CC[C@H]2O[C@@H]1[C@@H](O)C[C@H](C)[C@H]1O[C@@]2(CCCCO2)CC[C@H]1C [OA, okadaic acid, reference compound]	–	–	–	–	Decrease in cell viability ([3]; OA 30 nM for 24 h): ~65%; Mitophagy modulation [7]: did not show any mitophagy modulation
OCCNc1nc(NCCc2ccccc2)c2cnn(/C=C\c3ccccc3)c2n1 [SI113]	–	–	–	–	IC50 [6]: 600 nM
Clc1ccccc1Nc1ncnc2[nH]ccc12 [VNG1.6]	48%	5.2 µM	–	–	–
Clc1ccc(Nc2ncnc3[nH]ccc23)cc1 [VNG1.7]	54.0%	9.3 µM	–	–	–
Nc1ccc(Sc2ccc(Nc3ncnc4[nH]ccc34)cc2)cc1 [VNG1.52]	60.5%	2.4 µM	–	–	Cell viability [8]: slightly decrease in cell viability
FC(F)(F)c1cccc(Oc2ccc(Nc3ncnc4[nH]ccc34)cc2)c1 [VNG1.65]	62.6%	3.4 µM	–	–	Cell viability [8]: slightly decrease in cell viability
